The campaign covered roughly 310,000 compounds. About 14,000 (4.5%) showed an effect of 50% or more. Effects have a minus sign here. The list shows a part of the results.
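Also: peak tail current of the secondary pulse compared with the same well before compound.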

human ether-à-go-go-related gene (hERG) potassium channel, sequence (Q12809 whole entry, looked up): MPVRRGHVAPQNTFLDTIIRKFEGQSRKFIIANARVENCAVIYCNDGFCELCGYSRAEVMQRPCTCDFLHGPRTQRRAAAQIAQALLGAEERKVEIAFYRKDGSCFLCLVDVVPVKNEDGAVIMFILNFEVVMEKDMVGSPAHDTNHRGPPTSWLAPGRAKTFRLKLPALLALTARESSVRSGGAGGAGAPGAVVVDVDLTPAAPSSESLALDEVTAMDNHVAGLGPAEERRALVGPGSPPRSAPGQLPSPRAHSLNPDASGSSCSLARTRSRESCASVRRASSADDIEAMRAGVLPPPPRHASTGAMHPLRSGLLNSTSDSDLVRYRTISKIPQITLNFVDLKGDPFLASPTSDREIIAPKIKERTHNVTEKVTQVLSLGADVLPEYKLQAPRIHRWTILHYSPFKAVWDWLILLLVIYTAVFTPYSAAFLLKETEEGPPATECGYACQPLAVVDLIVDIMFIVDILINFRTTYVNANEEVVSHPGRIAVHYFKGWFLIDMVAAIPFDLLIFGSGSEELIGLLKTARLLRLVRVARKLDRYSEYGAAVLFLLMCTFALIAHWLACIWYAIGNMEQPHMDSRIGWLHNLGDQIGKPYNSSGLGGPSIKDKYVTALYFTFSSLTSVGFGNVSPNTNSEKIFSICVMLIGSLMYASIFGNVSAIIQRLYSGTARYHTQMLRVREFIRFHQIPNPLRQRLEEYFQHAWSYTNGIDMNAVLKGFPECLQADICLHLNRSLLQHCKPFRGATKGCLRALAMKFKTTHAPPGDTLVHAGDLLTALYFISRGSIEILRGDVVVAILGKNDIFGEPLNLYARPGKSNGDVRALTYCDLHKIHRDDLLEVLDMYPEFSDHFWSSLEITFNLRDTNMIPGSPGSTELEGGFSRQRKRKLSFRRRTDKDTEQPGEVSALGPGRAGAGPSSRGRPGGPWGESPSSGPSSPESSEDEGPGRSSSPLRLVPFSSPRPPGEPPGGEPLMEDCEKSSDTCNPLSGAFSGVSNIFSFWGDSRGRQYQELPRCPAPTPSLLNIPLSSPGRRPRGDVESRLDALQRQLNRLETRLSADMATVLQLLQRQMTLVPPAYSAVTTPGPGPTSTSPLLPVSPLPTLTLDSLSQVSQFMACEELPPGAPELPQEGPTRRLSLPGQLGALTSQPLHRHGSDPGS

The assay has as its target human ether-à-go-go-related gene (hERG) potassium channel (human, UniProt Q12809). As to the kind of experiment: primary screen, population patch clamp on CHO cells stably expressing hERG.
With `O=[N+]([O-])c1ccc(CNc2cccc(F)c2)s1`, the “hERG current change (%, negative = inhibition) at 10uM” value is on record as -32.3%. The value for `O=C(N/C(=C\c1cn(-c2ccccc2)nc1-c1ccccc1)C(=O)N1CCOCC1)c1ccccc1` was 15.5%; that for `O=C1CCCC2=C1C(c1ccccc1)NC(=S)N2` (stereo not shown) was 25.1%. `Cc1cc(C(C#N)c2ccccc2)n2ncnc2n1` (stereo not shown): the “hERG current change (%, negative = inhibition) at 10uM” value is -0.89%. With `NC(=O)c1ccc(NC(=O)CN2CCN(Cc3ccccc3)CC2)cc1`, the “hERG current change (%, negative = inhibition) at 10uM” value was -0.874%. Take `CCOC(=O)C1=C(Nc2ccc(C)cc2)CC(C)(O)C(C(=O)OCC)C1c1ccccc1` (stereo not shown): the “hERG current change (%, negative = inhibition) at 10uM” value is listed as 16.3%.

On to `Cc1ccc2c(c1)c1nnc(SCC(=O)N3CCCc4ccccc43)nc1n2CC(=O)O`, for which the “hERG current change (%, negative = inhibition) at 10uM” value worked out at 20.2%.

Take `Cc1ccccc1OCCCCn1cnc2ccccc21`: the “hERG current change (%, negative = inhibition) at 10uM” value is on record as -49.4%. The figure for `Nn1c(SCc2ccc(F)cc2)nnc1-c1ccncc1` is -3.1%; for `Cc1cccc(S(=O)(=O)Nc2ccc(-n3c(C)nc4ccccc4c3=O)cc2)c1` it is -55.9%; for `CSCCC(NS(=O)(=O)c1ccccc1F)C(=O)OCc1ccccc1Cl` (stereo not shown) it is -16.3%. The figure for `CCCOc1ccc(-c2c(=O)n(OCC(=O)OCC)c3ccccc3[n+]2[O-])cc1` is -4.43%; for `c1ccc(-c2nc(CSc3nnc(-c4cccs4)o3)cs2)cc1` it is -9.61%; for `CCN(CC)CCn1c(=N)n(CCO)c2ccccc21` it is 5.99%. The value for `CCOC(=O)C(=O)/C(=C\N(C)C)c1onc(-c2c(Cl)cccc2Cl)c1C(=O)OC` was -21.2%; that for `Cc1ccc(/C=N/NC(=O)c2cccc(NC(=O)c3ccccc3Cl)c2)o1` was -20.8%; that for `CC(Cc1cccs1)N(Cc1ccc(Cl)cc1)C(=O)c1ccncc1` (stereo not shown) was -17%. For the molecule `CC[C@@H](NS(=O)(=O)c1ccc(C)cc1)C(=O)Oc1ccc2c3c(c(=O)oc2c1)CCC3`, the “hERG current change (%, negative = inhibition) at 10uM” value is reported as -5.34%. Turning to `O=c1oc2ccccc2cc1-c1nnc(NCc2ccco2)s1`, the “hERG current change (%, negative = inhibition) at 10uM” value was -14.1%.

Regarding `Cc1sc2nc(CSCC(=O)NC(C)(C)C)[nH]c(=O)c2c1C`, the “hERG current change (%, negative = inhibition) at 10uM” value amounted to 15.1%. The value for `Cc1ccc(NC(=O)C(=O)NCC2CCN(C(=O)c3cccc([N+](=O)[O-])c3)CC2)cc1` was -16.5%. Regarding `CCNS(=O)(=O)c1ccc(CCC(=O)N2CCCC2)cc1`, the “hERG current change (%, negative = inhibition) at 10uM” value is recorded as 6.37%. The figure for `COc1ccc(CNC(=O)C(c2ccco2)N(Cc2cccs2)C(=O)Cc2cccs2)cc1` (stereo not shown) is 10.6%; for `Cc1cc(C)nc(NNC2=CC(=[N+]3CCCC3)CCC2)n1.[I-]` it is -13.8%.

Regarding `CN1CCN(C(=O)c2cc3c(n(-c4ccccc4)c2=O)CC(C)(C)CC3=O)CC1`, the “hERG current change (%, negative = inhibition) at 10uM” value was found to be 7.06%. `COc1ccc(-c2cc(=[NH+]c3ccccc3)c3cc(C)ccc3o2)cc1.[O-][Cl+3]([O-])([O-])[O-]`: the “hERG current change (%, negative = inhibition) at 10uM” value is given as 24.8%. The value for `CSCCC(NC(=O)c1ccco1)C(=O)NC1CCCCCC1` (stereo not shown) was 3.82%; that for `CCOC(=O)c1ccc(S(=O)(=O)N2CCN(C(=O)CSc3nc4ccccc4o3)CC2)cc1` was -27.6%; that for `COc1ccc(C2C=C(c3cccs3)Nc3nc(CCCO)nn32)cc1` (stereo not shown) was -57.9%. On to `Cc1c(C(=O)c2ccc(Cl)c([N+](=O)[O-])c2)c2ccccn2c1CCC#N`, for which the “hERG current change (%, negative = inhibition) at 10uM” value was -17.9%. The figure for `COc1ccc(/C=C(\C#N)C(=O)Nc2cccnc2)cc1` is 8.23%. The figure for `O=c1[nH]nc(Cc2ccc(Cl)cc2)c2ccccc12` is 8.04%; for `Cc1ccccc1Nc1nc(-c2cccnc2)cs1` it is -6.7%; for `COc1ccc(N(CC(=O)NC2CCCC2)C(=O)Cn2nnc(-c3ccc(F)cc3)n2)cc1` it is -43.4%. With `CC(=O)Oc1ccccc1C1=NN(C(C)=O)C(c2ccccc2)C1` (stereo not shown), the “hERG current change (%, negative = inhibition) at 10uM” value was 17.5%. In the case of `O=C(N/N=C/c1ccncc1)NC12CC3CC(CC(C3)C1)C2`, the “hERG current change (%, negative = inhibition) at 10uM” value is listed as -26.6%. The figure for `NC(=O)c1cc2ccccc2o/c1=N\NC(=O)c1ccc(F)cc1` is -33.9%; for `CSc1ccc(CN(C)C(=O)c2cc(Cl)c3c(c2)OCCO3)cc1` it is -6.04%; for `COc1ccc(-c2nc(=S)c3c(n2CCN2CCOCC2)CC(C)(C)OC3)cc1` it is -1.05%. For the molecule `O=C(CCNC(=O)c1ccc([N+](=O)[O-])cc1)Nc1ccc(F)cc1`, the “hERG current change (%, negative = inhibition) at 10uM” value is on record as -18.6%.

On to `O=C(NC(Cc1ccccc1)c1nc2ccccc2[nH]1)c1cccc([N+](=O)[O-])c1` (stereo not shown), for which the “hERG current change (%, negative = inhibition) at 10uM” value is listed as 4.95%.

Regarding `Cc1ccc(CN2[C@@H](CC(C)C)COCCS2(=O)=O)cc1`, the “hERG current change (%, negative = inhibition) at 10uM” value is on record as -2.46%.

Regarding `O=C(N/N=C/CCc1ccccc1)c1ccccc1`, the “hERG current change (%, negative = inhibition) at 10uM” value is given as 0.383%.
